# In the BET-seq Pho4 binding data (Le et al. 2018):
# The list shows a part of the results. Values were computed here from the reads of four pooled replicates and scatter widely.
# Molecular target: T1, Pho4 (S. cerevisiae) (UniProt P07270)
# T1 sequence: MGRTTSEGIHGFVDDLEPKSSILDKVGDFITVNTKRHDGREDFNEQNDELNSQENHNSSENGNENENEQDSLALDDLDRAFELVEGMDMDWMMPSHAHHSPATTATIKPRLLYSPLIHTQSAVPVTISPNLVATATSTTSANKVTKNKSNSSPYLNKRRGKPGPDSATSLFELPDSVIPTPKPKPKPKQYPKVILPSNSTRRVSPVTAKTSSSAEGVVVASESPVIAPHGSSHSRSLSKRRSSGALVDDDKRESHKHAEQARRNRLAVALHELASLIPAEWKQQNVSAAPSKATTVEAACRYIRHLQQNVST
# Assay: relative binding free energy (BET-seq); higher = weaker binding
# Conditions: reference: library average
row,Sequence,relative binding free energy [kcal/mol]
1,CGTGTCACGTGATTGA,0.11
2,GTTGCCACGTGCTTGG,-0.09
3,TCAAGCACGTGGGGGG,-0.19
4,AAGTGCACGTGGACTG,0
5,GCGCGCACGTGTGGGC,-0.02
6,CGGTTCACGTGGCCGG,0.18
7,GGTGACACGTGTTCTA,0.07
8,TGTGGCACGTGTAGAA,0.14
9,TTGAGCACGTGGGGGG,-0.19
10,AAGGTCACGTGTTACT,0.17
11,AGAAACACGTGTGTGG,0.1
12,AAGTTCACGTGAAATG,0.47
13,GGCTCCACGTGAGGTG,0.3
14,CTGCTCACGTGGGTGA,0.19
15,ATGACCACGTGAGGGG,0.29
16,GGCTTCACGTGTTATG,0.21
17,TGGTTCACGTGGACAG,0.2
18,ATTGGCACGTGGAGGG,-0.09
19,CGAGGCACGTGTAGGG,0.05
20,GATACCACGTGGAGGG,0
21,AAGATCACGTGGTTAA,0.12
22,GGTCACACGTGTTTAT,0.18
23,TTTTTCACGTGTCTTT,0.14
24,TTGTTCACGTGCATGC,0.29
25,GGCGTCACGTGATGAG,0.24

row,Sequence,relative binding free energy [kcal/mol]
1,CTTTTCACGTGATGTA,0.42
2,TTTATCACGTGCTTGG,0.19
3,TCGCTCACGTGTTGTG,0.07
4,GCGGGCACGTGATGGC,0.24
5,AGGATCACGTGGAGGA,0.19
6,AGTGGCACGTGGTTGA,-0.24
7,GTTTACACGTGATTAT,0.29
8,TGATCCACGTGATGTT,0.21
9,GAATGCACGTGTGGAT,0.06
10,TGTGGCACGTGCGCTT,-0.31
11,GTCGCCACGTGTTGGT,-0.04
12,GATTGCACGTGGCTGT,0
13,TGAGGCACGTGCAATT,-0.05
14,GGTACCACGTGTTAGT,-0.07
15,TGGAGCACGTGGCGGC,-0.18
16,GTTCGCACGTGAGTGT,0.2
17,GTTGGCACGTGACTCG,0.03
18,GGGGTCACGTGTTAGG,0.15
19,TTGTACACGTGAAGTG,0.31
20,TTGTCCACGTGGGGGA,-0.09
21,TGGTGCACGTGGTAGC,-0.07
22,GAATTCACGTGTGTCG,0.34
23,GGGCGCACGTGGTGCG,-0.09
24,GGCGTCACGTGGACGG,0.2
25,AATTTCACGTGTCGTA,0.16

row,Sequence,relative binding free energy [kcal/mol]
1,AGGAGCACGTGATGAG,0.04
2,TTTATCACGTGCTCGT,0.15
3,GCTTGCACGTGGGGGG,-0.05
4,AGTTGCACGTGAGCTT,0.23
5,TGAATCACGTGGCTGG,0.2
6,CTGGGCACGTGTAATT,0.04
7,CGTTTCACGTGTTAAT,0.24
8,AAGTACACGTGTGAGG,0.16
9,GGAGGCACGTGTAGGT,-0.05
10,TTTGGCACGTGCGTGG,-0.23
11,TGTCACACGTGGGGGA,-0.18
12,ATATGCACGTGAGGCG,0.11
13,GTTAACACGTGTAGGG,0.09
14,GTGTCCACGTGGTGTC,0.03
15,ATGTTCACGTGCTTGG,0.18
16,TGGAGCACGTGAAATG,0.27
17,GGGTACACGTGATGGT,0.3
18,GCGTGCACGTGTGGGT,0.06
19,AGTGTCACGTGTAAAT,0.22
20,TGGTCCACGTGTGTAT,0.14
21,GATAGCACGTGTGTTT,0.06
22,GTTTTCACGTGAGGGG,0.46
23,TGGGTCACGTGTTATA,0.15
24,GGAGGCACGTGTCCGG,-0.06
25,AGGCGCACGTGTGCGG,-0.15

row,Sequence,relative binding free energy [kcal/mol]
1,TGTGACACGTGTATAA,0.05
2,ACCGGCACGTGGGGGC,-0.26
3,GTTAGCACGTGGAGCT,0
4,GGATTCACGTGGGTAA,0.2
5,GGTATCACGTGTTTGT,0.19
6,CGTGCCACGTGAGGTT,-0.01
7,TGCAGCACGTGGCTGT,-0.15
8,GCATGCACGTGGTTGA,0
9,AAAATCACGTGGGGTT,0.07
10,GTGGTCACGTGCTATG,0.02
11,GGTTACACGTGATATG,0.19
12,ACTGGCACGTGGGATT,-0.14
13,GGATTCACGTGTGTAG,0.08
14,GGGTCCACGTGCGTGT,-0.22
15,GGTGGCACGTGAGGAG,0.09
16,AAAAGCACGTGTATGT,-0.14
17,TTGTTCACGTGGCAAG,0.23
18,TTGTACACGTGACGTA,0.15
19,TCAATCACGTGTTGTT,0.14
20,CGGTGCACGTGGGCGC,-0.27
21,CGTGCCACGTGGTGGA,-0.25
22,TTGTGCACGTGAATCG,0.2
23,TTCGTCACGTGGTAAG,0.13
24,ATTTGCACGTGTAACT,0.07
25,TGTGCCACGTGGGGGC,-0.26

row,Sequence,relative binding free energy [kcal/mol]
1,TAGTGCACGTGCAGTA,0.02
2,AATAGCACGTGAGATG,0.19
3,TGTTTCACGTGCTCGA,0.2
4,TGAGGCACGTGGGCCG,-0.28
5,ATTTTCACGTGGAAAT,0.31
6,TTTTACACGTGAGTCA,0.24
7,TGTCGCACGTGCAGTA,-0.02
8,GTGGCCACGTGTGTTA,0.13
9,ATTTTCACGTGTACAG,0.24
10,TATATCACGTGTATCG,0.25
11,GGCTTCACGTGGAATG,0.42
12,TGTGGCACGTGGGTGT,-0.22
13,GGTGACACGTGCGTGA,-0.03
14,GTCCTCACGTGGTTTA,0.29
15,AGTAGCACGTGATGAG,-0.07
16,GTGTTCACGTGGGGAA,0.16
17,ATAGGCACGTGAAGAT,0.04
18,AGAGTCACGTGACGTT,0.17
19,TGATGCACGTGTTATC,0.03
20,CGGGACACGTGTGTTC,0.07
21,TCGTTCACGTGAAGTG,0.42
22,GTTTCCACGTGTTATG,0.13
23,GTTTGCACGTGAGTAT,0.24
24,AATGTCACGTGCATGT,-0.03
25,ACGGGCACGTGATGGT,0.14

row,Sequence,relative binding free energy [kcal/mol]
1,TGTGTCACGTGGCATG,-0.04
2,GGAGTCACGTGCTGGG,-0.04
3,AGTGTCACGTGGAGGT,-0.02
4,AGATTCACGTGTTGCT,0.13
5,ATGATCACGTGGTTTC,0.12
6,TATGACACGTGGATGT,-0.04
7,AGCTCCACGTGAGGGG,0.21
8,TAAGGCACGTGCGTTA,-0.17
9,GTGCACACGTGGTAGT,-0.06
10,TGTCGCACGTGTGTTG,-0.03
11,TTAAACACGTGAAGGT,0.21
12,TTAGTCACGTGAGTAG,0.27
13,TTGCTCACGTGCAGGT,0.15
14,GTGATCACGTGTGTGA,0.26
15,GAGGTCACGTGGCGTA,0
16,TTTTGCACGTGCGGTA,0.04
17,ATATTCACGTGTTGGC,0.27
18,TGTTACACGTGTTCGC,0.09
19,GATGGCACGTGGTTAT,-0.12
20,TTGTCCACGTGTCGTG,0.16
21,GAGGACACGTGGGTTC,0.13
